Experimental data published in paper PMC12136788.
Some of the results follow.

T1: UNK ZnF1-6 (called full-length) (human, UniProt Q9C0B0 30-357)
T1 sequence: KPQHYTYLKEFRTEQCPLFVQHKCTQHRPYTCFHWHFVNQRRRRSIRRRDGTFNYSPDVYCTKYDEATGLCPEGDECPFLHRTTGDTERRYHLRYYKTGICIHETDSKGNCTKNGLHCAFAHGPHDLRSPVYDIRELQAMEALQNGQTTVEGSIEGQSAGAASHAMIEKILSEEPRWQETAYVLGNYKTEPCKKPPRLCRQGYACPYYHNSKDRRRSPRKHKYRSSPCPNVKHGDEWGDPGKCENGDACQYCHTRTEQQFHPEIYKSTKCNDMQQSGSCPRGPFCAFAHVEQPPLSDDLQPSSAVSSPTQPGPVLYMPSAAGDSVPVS

B1: chrX:11121696:11121802:+|CDS|ENSG00000004961|unk|FALSE|unique (ssRNA)
RNA: GGGAGUUCUACAGUCCGACGAUCUGAUGGUGGUGAAGUCAACAAGGACUACCAGUUCACCAUCCUGGACGUCCGUCCUGCCUUAGAUUCACUUUCGGCAGUAUGGGACAGAAUGAAAGUCGCUUGGUGGCGUUGGACCUCGUACAACAGAGGAUUGAGCAUCA
B2: chr2:152649661:152649762:+|3pUTR|ENSG00000157827|msi1|FALSE|unique (ssRNA)
RNA: GGGAGUUCUACAGUCCGACGAUCCUACAAAUAGACAACGUUGGCAUGUUCUUUUCUGUUUGUCUAUUAAUGGGCCUGCUUCUUAGCAAUAUUAGAAUGUUUUAUAAAAGCAAUUCAUGUUACUUUUCUGGUCUUUUCAUGGCACAACAGAGGAUUGAGCAUCA
B3: chr20:25296659:25296760:+|3pUTR|ENSG00000100994|msi1|FALSE|unique (ssRNA)
RNA: GGGAGUUCUACAGUCCGACGAUCUGGGGGUCAGGGUGGUUUUGAGAGAGCAGGGUAAGGAAGGAAUGUGCUAGAAGUGCUCCUAGUUUCUUGUAAAGGAAGCCAGAGUUGACAGUACAAAGGGUCGUGGCCAGCCCUGCAGCUCAACAGAGGAUUGAGCAUCA
B4: chr1:162523450:162523604:+|3pUTR|ENSG00000152332|msi1|total|mutant (ssRNA)
RNA: GGGAGUUCUACAGUCCGACGAUCAGACUAAGUUGUGCCAGAUGUAAAUCAACCCCUCUUUCCGUUUACUUCCGACUUUGUAUCCGCUCAUCUUUUUUGCCGUAAAUCUACCGUUUUAAGGUUUCUCAAGAUGUGGCUCUACCUCAACAGAGGAUUGAGCAUCA
B5: chr21:36753219:36753320:-|3pUTR|ENSG00000159267|msi1|total|mutant (ssRNA)
RNA: GGGAGUUCUACAGUCCGACGAUCGUUUCAGAUUUACUCUGAAAUGUGGAGCAUUCCUGCAAGACUGUGCAGCUCACGGAAUACCGAAGACAUGGCAUUUUACUCAGAAGUCAUAAGUUUUUGCCCCCCUCAUUUACCUCGUAUCAACAGAGGAUUGAGCAUCA
B6: chr1:46929176:46930310:-|three_prime_utr|ENSG00000187048|control|control|control (ssRNA)
RNA: GGGAGUUCUACAGUCCGACGAUCAAGGCUACCCUGACGCACCAUAAUCUAAGCCCGGGGCAUAAAACCCCUCGUGGCUUGGAUAGAAUCCAGGGCUCGUGGCUCUGGAAUGUGUCUGAACUUGCUGCCUCCUCGCUCCUUGCUCAACAGAGGAUUGAGCAUCA

Target: T1, UNK ZnF1-6 (called full-length)
Assay: nsRBNS (natural sequence RNA bind-n-seq); RBNS binding buffer (assumed for nsRBNS): 25 mM Tris pH 7.5, 150 mM KCl, 3 mM MgCl2, 0.01% Triton X-100, 500 ug/ml BSA, 20 U/ml SUPERase-In, 4 C; UNK is unkempt and MSI1 is Musashi-1; names of the RNAs are library labels; protein concentration not given here; high values mean tight binding

Binder	binding signal [enrichment R]
B1	0.634
B2	1.74
B3	1.2
B4	0.326
B5	0.465
B6	0.448
